First the molecules themselves.
B1: tRNA (parent)
chain: CUCUCGGUAGCCAAGUUGGUUUAAGGCGCAAGACUUUAAUUUAUCACUACGAAAUCUUGAGAUCGGGCGUUCGACUCGCCCCCGGGAGAUUUUUUCCUCGAGCAA

Variants at the background level are over-represented here.

In the data set the parent is B1. The data set is described as follows: nonsense suppression (GFP-seq) (ratio to wild type); higher = more function; SUP4oc tRNA, yeast GFP reporter sort-seq. The essentials:
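To measure nonsense suppression, tRNA variants from a library carrying ~3% random mutations were integrated into the yeast genome alongside RFP and a GFP ochre reporter under galactose control. Growth took place in raffinose/galactose medium supplemented with 80 mg/L adenine, followed by sorting into GFP/RFP bins and Illumina sequencing of each bin (phred ≥30). For each variant with ≥100 reads and ≥30 cells, the bin median GFP/RFP values were weighted by its estimated cell share per bin and referenced to the unmutated parent tRNA.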
As to A9G A13G G19U G85A, the nonsense suppression is not above 0.026.

Consider G15C G66C, for which the nonsense suppression was not above 0.026. For U55G G61U, the nonsense suppression was not above 0.026. In the case of C34U U35G A74U G88A, the nonsense suppression is not above 0.026. Consider C27G U58G, for which the nonsense suppression was not above 0.026. For G6U G7C A74G, the nonsense suppression is not above 0.026. Next, C3A G25A U57C: not above 0.026; G15A U16A: 0.0275; C11G C81G: not above 0.026. Consider G66A C75A, for which the nonsense suppression came out at 1.18. Turning to C11U A62U C80A, the nonsense suppression is not above 0.026. For G10A U58A C80A, the nonsense suppression was not above 0.026. C27G U35C A74G G78A: the nonsense suppression is not above 0.026. Regarding C3A C83G, the nonsense suppression is not above 0.026.

Consider U4G A13U G88U, for which the nonsense suppression was not above 0.026.

Consider G18U U70G A87C, for which the nonsense suppression is not above 0.026. C5G A14G G18A A31U: the nonsense suppression is not above 0.026.

In the case of A31G A62C G86C, the nonsense suppression is not above 0.026. Consider U17G G26U A30G C34A A74U, for which the nonsense suppression was not above 0.026. On to U70A, for which the nonsense suppression is not above 0.026. For U16G G67U, the nonsense suppression is not above 0.026. Consider C5U C12U G85U, for which the nonsense suppression is not above 0.026. For G18U G28A G85C, the nonsense suppression was not above 0.026. Next, G10U G28C U35A C64U: not above 0.026. Consider A13C C64A, for which the nonsense suppression was not above 0.026. For G18C A60G A87U, the nonsense suppression is not above 0.026. In the case of A30G G32U G88C it was not above 0.026; in that of U2C C27U U55A C75A, not above 0.026; in that of G59C C75G U76G C79A C83A, not above 0.026.

Turning to A13C G28U, the nonsense suppression was 0.0283.

As to U71G C82G, the nonsense suppression was not above 0.026.

Turning to C11U G19A A33C, the nonsense suppression is not above 0.026. With U4C U58A G69A, the nonsense suppression was not above 0.026.

As for U8A G10A G18A G66A, the nonsense suppression is not above 0.026.

A13G G28A U63C: the nonsense suppression is not above 0.026. As for C12A U20A G78A, the nonsense suppression is not above 0.026. Consider C1U C3A G73C A74C, for which the nonsense suppression is not above 0.026. In the case of C1G C29A U55C C68A it was not above 0.026; in that of C12U G67U, not above 0.026; in that of G7C A60U G61A C82G, 0.0263.

For U16A, the nonsense suppression was determined as 1. Regarding C1U U2A U20G, the nonsense suppression is not above 0.026.

With G10U A24G, the nonsense suppression is not above 0.026.

On to C12G A62C G65A C83G, for which the nonsense suppression is not above 0.026.

On to A14G G86A, for which the nonsense suppression is not above 0.026. For the variant G65C G66A C82U, the nonsense suppression is not above 0.026.

As for C12G U57G G86A, the nonsense suppression is not above 0.026. Regarding A23G A62U G84U, the nonsense suppression was not above 0.026. For A9C C11U U70G, the nonsense suppression was not above 0.026. Regarding C1A A14U C68G, the nonsense suppression was not above 0.026.

As to U70C C77U, the nonsense suppression is not above 0.026. Next, C11U U16C C56G C82G C83A: not above 0.026; C3A A33G G86A: not above 0.026.

For the variant G7U A33G U35G C56G G69U C79A, the nonsense suppression was not above 0.026.

As to A62C A87G, the nonsense suppression is not above 0.026. Take U8G G78C: the nonsense suppression was not above 0.026. Regarding C56A G86U G88C, the nonsense suppression is not above 0.026. With A23G A74U, the nonsense suppression was not above 0.026. In the case of U4A G15U A60G, the nonsense suppression is not above 0.026. In the case of G15C C64A C77G it was not above 0.026; in that of G10U U76A, not above 0.026; in that of G28A G32U G61A G66A, not above 0.026. In the case of U8A A14G U70A it was not above 0.026; in that of G7A A9C A54G, not above 0.026; in that of C3U C5U U76A C81A, not above 0.026.

Turning to G7A G32A, the nonsense suppression is not above 0.026. In the case of A24C G73A G86U it was not above 0.026; in that of C12A A14U, not above 0.026. Next, C29U C68G: not above 0.026. In the case of G7U U76A it was not above 0.026. As to A14U U22G C29A C56A C77G, the nonsense suppression was not above 0.026. For the variant G7U A30U G59U, the nonsense suppression is not above 0.026.

Consider C56G U58G A60C G66A G88A, for which the nonsense suppression is not above 0.026. Consider C1A G10U A62U U76C, for which the nonsense suppression was not above 0.026. In the case of U16G G28U, the nonsense suppression was not above 0.026. In the case of C29U, the nonsense suppression came out at 1.07. With C3G A54G, the nonsense suppression is not above 0.026.

Turning to C12A C77A, the nonsense suppression was not above 0.026. Next, U20C C75U: 0.843; C1G U2G A60U U76A C80U C81A: not above 0.026; C27G C80G A87G: not above 0.026. As for C12A C27G C77A A87C, the nonsense suppression is not above 0.026. Consider C27U U57C, for which the nonsense suppression is not above 0.026. With A23C C34A U70C, the nonsense suppression was not above 0.026. In the case of G73U U76C, the nonsense suppression is not above 0.026.

On to A9U G61A, for which the nonsense suppression was determined as 0.195. As for G67A G73U C79U, the nonsense suppression is not above 0.026. For the variant C5G U70A, the nonsense suppression is not above 0.026. Turning to U8A U35G A54C A74G C83U G86A, the nonsense suppression was not above 0.026. Take C5U G15A G86C: the nonsense suppression is not above 0.026.

Take A14G G19U C29G U76C G84A: the nonsense suppression was not above 0.026. As for G6C G19A U55C U70G, the nonsense suppression is not above 0.026.

A9G A14U G59C U71C: the nonsense suppression is not above 0.026.

With G19A C68A, the nonsense suppression was not above 0.026. With A9C A54C G65C G86A, the nonsense suppression is not above 0.026. Turning to A31G A33G U55C G61A, the nonsense suppression amounted to 0.727. Turning to U20G A54G U58A, the nonsense suppression was not above 0.026. Take C68G G85U: the nonsense suppression is not above 0.026. Take C5U U20C: the nonsense suppression was not above 0.026. With U21G U55A C56G G66A C81G, the nonsense suppression was not above 0.026. Take A14C U21G A23C G69A U70A: the nonsense suppression is not above 0.026. Next, C1U A9C A62C: not above 0.026. In the case of G65C C79G it was not above 0.026. In the case of G61C G78A C80G it was not above 0.026. Consider C56A G84C, for which the nonsense suppression is not above 0.026. In the case of A9U G78A, the nonsense suppression is 0.0365.

C11A C68A G73U: the nonsense suppression is not above 0.026. Consider U8G A24G, for which the nonsense suppression is not above 0.026. For the variant U57C U58A G61U, the nonsense suppression was not above 0.026. In the case of G15C G85U it was not above 0.026. For C12G C29A C34U A87C, the nonsense suppression was not above 0.026.

As for C5U G6U G84C, the nonsense suppression was not above 0.026. As for C11G U20C G25U U63G C75A G78C, the nonsense suppression was not above 0.026. Next, C5U A31C G69C: not above 0.026. G15U A23G G65C: the nonsense suppression was not above 0.026.

Take C12U U17A C64G: the nonsense suppression was not above 0.026. Consider G6A G10U U20A A24C, for which the nonsense suppression was not above 0.026. For C64A G73U, the nonsense suppression was not above 0.026. Next, A60U G67C: not above 0.026. Next, U21A G84A: not above 0.026. Regarding C12A C34U U70G C75U, the nonsense suppression was not above 0.026. As for C12U G28U U76C, the nonsense suppression is not above 0.026. In the case of G26C C75A, the nonsense suppression is not above 0.026. For the variant C1A A24G A30U A62C, the nonsense suppression was not above 0.026. On to C5A A9U C29A C77U A87G, for which the nonsense suppression is not above 0.026.

As to U16C G18U G28C G73U, the nonsense suppression was not above 0.026. Consider G6U C34G G69U, for which the nonsense suppression was not above 0.026. In the case of A31U U70G it was not above 0.026; in that of A31U U70C, not above 0.026; in that of G15A U16C G28C, not above 0.026. For the variant C12U A14C A31C G32U, the nonsense suppression was not above 0.026. In the case of C11G A62U C64A it was not above 0.026; in that of C3U U22C G26A A33G A62U G66A U76G G78U, not above 0.026; in that of C3A U8A A14U A60G C77G, not above 0.026. Regarding U16C C81A, the nonsense suppression was not above 0.026.

With G32C C79A, the nonsense suppression is not above 0.026. For U22A U35A U57A, the nonsense suppression is not above 0.026.

For C5U A33G A89G, the nonsense suppression was not above 0.026. For the variant U35A G67C G73U, the nonsense suppression is not above 0.026. As to A23U U57A G66A C68U, the nonsense suppression is not above 0.026. U20C U55G A87U: the nonsense suppression is not above 0.026. Turning to G15U U21G A60C, the nonsense suppression is not above 0.026. With A9C A30U, the nonsense suppression came out at 0.0886.

Regarding G10U A33G, the nonsense suppression was not above 0.026. Next, A9G U22G U63A C81A: not above 0.026; C3A C12A A13G A60C: not above 0.026.

As for U71C C82U G84C, the nonsense suppression is not above 0.026. Consider C1G U22C G84C, for which the nonsense suppression is not above 0.026.

For the variant U4A G84C G88U, the nonsense suppression is not above 0.026. In the case of A24G G61A U76C, the nonsense suppression amounted to 0.0509. In the case of C12U A13U C80U C83U, the nonsense suppression was not above 0.026.

Turning to U8A A30G A33G, the nonsense suppression is not above 0.026.

G15A A60C U63A C68U: the nonsense suppression was not above 0.026. In the case of C29U A31C G78C C81A, the nonsense suppression is not above 0.026. Next, G26C G28C C29G C72G C81G: not above 0.026; G25U A60G G66A: not above 0.026; A30G G73A C75A: 0.318. Next, C3A G19C A87C: not above 0.026. Consider C11G U57G C77U, for which the nonsense suppression is not above 0.026. For the variant G69C C81U G84A, the nonsense suppression was not above 0.026. As to C3U A13C C29U A33G A74C, the nonsense suppression was not above 0.026.

With C5U G88C, the nonsense suppression is not above 0.026.

With U17G A30U G67A, the nonsense suppression was not above 0.026. In the case of C34A G61U it was not above 0.026; in that of G66A G88A, not above 0.026. On to U2A C11U G88A, for which the nonsense suppression was not above 0.026. In the case of G7U U35C G59U it was not above 0.026.

Values taken from the RNAGym collection of RNA variant scans (doi:10.1101/gad.245936.114).
